Measured values from paper PMC9911399, “Two distinct binding modes provide the RNA-binding protein RbFox with extraordinary sequence specificity”.
Positions count from the first letter of the chain named. The list shows a part of the results.

T1: RBFOX1 RRM (Homo sapiens, UniProt Q9NWB1 109-208)
T1 sequence: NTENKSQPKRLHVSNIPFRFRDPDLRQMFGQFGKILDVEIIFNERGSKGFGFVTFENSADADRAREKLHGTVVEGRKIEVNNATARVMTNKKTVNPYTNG

B1: UCUAAAC (DNA:RNA)
RNA: GGGAGACCGGAAUUCAGAUUGUCCUCUAAACUUAAAUCCCGUCGUAGCCACCA
DNA 1: CAATCTGAATTCCGGTCTCCC
DNA 2: TGGTGGCTACGACGGGATT
B2: ACGGCCA (DNA:RNA)
RNA: B1 RNA with U25A, U27G, A28G, A29C, A30C, C31A
DNA 1: CAATCTGAATTCCGGTCTCCC
DNA 2: TGGTGGCTACGACGGGATT
B3: CCACUUC (DNA:RNA)
RNA: B1 RNA with U25C, U27A, A28C, A29U, A30U
DNA 1: CAATCTGAATTCCGGTCTCCC
DNA 2: TGGTGGCTACGACGGGATT
B4: AUGAUAC (DNA:RNA)
RNA: B1 RNA with U25A, C26U, U27G, A29U
DNA 1: CAATCTGAATTCCGGTCTCCC
DNA 2: TGGTGGCTACGACGGGATT
B5: UGCCCGG (DNA:RNA)
RNA: B1 RNA with C26G, U27C, A28C, A29C, A30G, C31G
DNA 1: CAATCTGAATTCCGGTCTCCC
DNA 2: TGGTGGCTACGACGGGATT
B6: GCCUUGA (DNA:RNA)
RNA: B1 RNA with U25G, U27C, A28U, A29U, A30G, C31A
DNA 1: CAATCTGAATTCCGGTCTCCC
DNA 2: TGGTGGCTACGACGGGATT
B7: UGAGGUA (DNA:RNA)
RNA: B1 RNA with C26G, U27A, A28G, A29G, A30U, C31A
DNA 1: CAATCTGAATTCCGGTCTCCC
DNA 2: TGGTGGCTACGACGGGATT
B8: GGUAAAC (DNA:RNA)
RNA: B1 RNA with U25G, C26G
DNA 1: CAATCTGAATTCCGGTCTCCC
DNA 2: TGGTGGCTACGACGGGATT
B9: UCUUCCA (DNA:RNA)
RNA: B1 RNA with A28U, A29C, A30C, C31A
DNA 1: CAATCTGAATTCCGGTCTCCC
DNA 2: TGGTGGCTACGACGGGATT
B10: CAUAUUU (DNA:RNA)
RNA: B1 RNA with U25C, C26A, A29U, A30U, C31U
DNA 1: CAATCTGAATTCCGGTCTCCC
DNA 2: TGGTGGCTACGACGGGATT
B11: UUGCCAU (DNA:RNA)
RNA: B1 RNA with C26U, U27G, A28C, A29C, C31U
DNA 1: CAATCTGAATTCCGGTCTCCC
DNA 2: TGGTGGCTACGACGGGATT
B12: UAUGUCC (DNA:RNA)
RNA: B1 RNA with C26A, A28G, A29U, A30C
DNA 1: CAATCTGAATTCCGGTCTCCC
DNA 2: TGGTGGCTACGACGGGATT
B13: CGCUUUG (DNA:RNA)
RNA: GGGAGACCGGAAUUCAGAUUGUCCCGCUUUGUUAAAUCCCGUCGUAGCCACCA
DNA 1: CAATCTGAATTCCGGTCTCCC
DNA 2: TGGTGGCTACGACGGGATT
B14: UUGGACA (DNA:RNA)
RNA: B1 RNA with C26U, U27G, A28G, A30C, C31A
DNA 1: CAATCTGAATTCCGGTCTCCC
DNA 2: TGGTGGCTACGACGGGATT
B15: CGAUAUC (DNA:RNA)
RNA: B13 RNA with C27A, U29A, G31C
DNA 1: CAATCTGAATTCCGGTCTCCC
DNA 2: TGGTGGCTACGACGGGATT
B16: CAAUAGA (DNA:RNA)
RNA: B13 RNA with G26A, C27A, U29A, U30G, G31A
DNA 1: CAATCTGAATTCCGGTCTCCC
DNA 2: TGGTGGCTACGACGGGATT
B17: CAUACCC (DNA:RNA)
RNA: B1 RNA with U25C, C26A, A29C, A30C
DNA 1: CAATCTGAATTCCGGTCTCCC
DNA 2: TGGTGGCTACGACGGGATT
B18: CGUGAGC (DNA:RNA)
RNA: B1 RNA with U25C, C26G, A28G, A30G
DNA 1: CAATCTGAATTCCGGTCTCCC
DNA 2: TGGTGGCTACGACGGGATT
B19: UAAUCGA (DNA:RNA)
RNA: B13 RNA with C25U, G26A, C27A, U29C, U30G, G31A
DNA 1: CAATCTGAATTCCGGTCTCCC
DNA 2: TGGTGGCTACGACGGGATT
B20: GGGAAGC (DNA:RNA)
RNA: B1 RNA with U25G, C26G, U27G, A30G
DNA 1: CAATCTGAATTCCGGTCTCCC
DNA 2: TGGTGGCTACGACGGGATT
B21: AGGAGAU (DNA:RNA)
RNA: B1 RNA with U25A, C26G, U27G, A29G, C31U
DNA 1: CAATCTGAATTCCGGTCTCCC
DNA 2: TGGTGGCTACGACGGGATT
B22: AUCAGCG (DNA:RNA)
RNA: B13 RNA with C25A, G26U, U28A, U29G, U30C
DNA 1: CAATCTGAATTCCGGTCTCCC
DNA 2: TGGTGGCTACGACGGGATT
B23: UAAUGGU (DNA:RNA)
RNA: B13 RNA with C25U, G26A, C27A, U29G, U30G, G31U
DNA 1: CAATCTGAATTCCGGTCTCCC
DNA 2: TGGTGGCTACGACGGGATT
B24: AGCCCUA (DNA:RNA)
RNA: B13 RNA with C25A, U28C, U29C, G31A
DNA 1: CAATCTGAATTCCGGTCTCCC
DNA 2: TGGTGGCTACGACGGGATT
B25: UUUGGGC (DNA:RNA)
RNA: B1 RNA with C26U, A28G, A29G, A30G
DNA 1: CAATCTGAATTCCGGTCTCCC
DNA 2: TGGTGGCTACGACGGGATT
B26: ACAUCUA (DNA:RNA)
RNA: B13 RNA with C25A, G26C, C27A, U29C, G31A
DNA 1: CAATCTGAATTCCGGTCTCCC
DNA 2: TGGTGGCTACGACGGGATT
B27: CAAAUCG (DNA:RNA)
RNA: B13 RNA with G26A, C27A, U28A, U30C
DNA 1: CAATCTGAATTCCGGTCTCCC
DNA 2: TGGTGGCTACGACGGGATT
B28: GCGGCAA (DNA:RNA)
RNA: B1 RNA with U25G, U27G, A28G, A29C, C31A
DNA 1: CAATCTGAATTCCGGTCTCCC
DNA 2: TGGTGGCTACGACGGGATT
B29: UACUGCG (DNA:RNA)
RNA: B13 RNA with C25U, G26A, U29G, U30C
DNA 1: CAATCTGAATTCCGGTCTCCC
DNA 2: TGGTGGCTACGACGGGATT
B30: GGGCUAG (DNA:RNA)
RNA: B13 RNA with C25G, C27G, U28C, U30A
DNA 1: CAATCTGAATTCCGGTCTCCC
DNA 2: TGGTGGCTACGACGGGATT
B31: GCUGUCC (DNA:RNA)
RNA: B1 RNA with U25G, A28G, A29U, A30C
DNA 1: CAATCTGAATTCCGGTCTCCC
DNA 2: TGGTGGCTACGACGGGATT

molecular target: T1, RBFOX1 RRM; test: EMSA; HiTS-Eq, 1 nM pool, 10 min; buffer printed only for the single-RNA assays: 10 mM Tris pH 7.5, 150 mM NaCl, 3.4 mM EDTA, 0.001% NP-40, 30 C; settings: tags: His6 N-terminal (pET28a); label: 5' 32P
Method in brief: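 Relative association constants, normalised to the cognate motif, were derived by comparing read counts of each RNA species with those of the control reaction. The RNA sequenced was the free fraction, separated by 8% native PAGE after a 10 min equilibration in 50 µL of 1 nM 5′-radiolabelled RNA (7 randomized nucleotides) with increasing concentrations of purified wild-type or mutant RbFox RRM.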

Row | Binder | binding signal
1 | B1 | 0.00203 KA relative to UGCAUGU
2 | B2 | 0.00664 KA relative to UGCAUGU
3 | B3 | 0.00413 KA relative to UGCAUGU
4 | B4 | 0.00543 KA relative to UGCAUGU
5 | B5 | 0.0184 KA relative to UGCAUGU
6 | B6 | 0.0236 KA relative to UGCAUGU
7 | B7 | 0.011 KA relative to UGCAUGU
8 | B8 | 0.0055 KA relative to UGCAUGU
9 | B9 | 0.00385 KA relative to UGCAUGU
10 | B10 | 0.000794 KA relative to UGCAUGU
11 | B11 | 0.0121 KA relative to UGCAUGU
12 | B12 | 0.0122 KA relative to UGCAUGU
13 | B13 | 0.0189 KA relative to UGCAUGU
14 | B14 | 0.00265 KA relative to UGCAUGU
15 | B15 | 0.0051 KA relative to UGCAUGU
16 | B16 | 0.00325 KA relative to UGCAUGU

Row | Binder | binding signal
17 | B17 | 0.000624 KA relative to UGCAUGU
18 | B18 | 0.0149 KA relative to UGCAUGU
19 | B19 | 0.0078 KA relative to UGCAUGU
20 | B20 | 0.036 KA relative to UGCAUGU
21 | B21 | 0.0167 KA relative to UGCAUGU
22 | B22 | 0.00651 KA relative to UGCAUGU
23 | B23 | 0.0142 KA relative to UGCAUGU
24 | B24 | 0.0003 KA relative to UGCAUGU
25 | B25 | 0.00539 KA relative to UGCAUGU
26 | B26 | 0.000793 KA relative to UGCAUGU
27 | B27 | 0.000981 KA relative to UGCAUGU
28 | B28 | 0.0181 KA relative to UGCAUGU
29 | B29 | 0.0232 KA relative to UGCAUGU
30 | B30 | 0.0339 KA relative to UGCAUGU
31 | B31 | 0.0163 KA relative to UGCAUGU
